In article PMC4242493 one finds binding signal (normalized occupancy) data, which are given here for 219 sequences.

Some of the results follow. The list includes weakly bound sequences.

The experiment has as its target MaxL homodimer (UniProt P61244). The experiment is described as follows: universal protein-binding microarray (PBM). Particulars: PBS-based mixture, 10 nM His-tagged protein dimer, 2% milk, 200 ng/uL BSA, 50 ng/uL salmon testes DNA, 0.02% TX-100; detection with Alexa 488 anti-His …; high values mean tight binding; most listed sequences are background and not binding sites; double strand, one strand shown.
UniProt P61244, sequence (P61244 whole entry): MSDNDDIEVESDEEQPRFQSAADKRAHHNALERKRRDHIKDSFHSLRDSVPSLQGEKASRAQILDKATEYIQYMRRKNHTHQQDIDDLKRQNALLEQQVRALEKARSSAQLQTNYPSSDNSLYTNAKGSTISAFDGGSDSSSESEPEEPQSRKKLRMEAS
Regarding TCGTTAGA, the binding signal (normalized occupancy) came out at 0.071.
For ACGCAGAA, the binding signal (normalized occupancy) was found to be 0.0781.
As for ATGACGGA, the figure is 0.0754; as for ACGTGCCA, 0.115.
Regarding GGATGGCC, the binding signal (normalized occupancy) turned out to be 0.0707.
Turning to CGGTTTCA, the binding signal (normalized occupancy) stood at 0.0706.
Consider CCTGGTCA, for which the binding signal (normalized occupancy) was found to be 0.0741.
As to CACCTCGC, the binding signal (normalized occupancy) stood at 0.0819.
As for CAACTGCG, the binding signal (normalized occupancy) was determined as 0.0686.
The same measure for CCGCCCCC: 0.08; for ATCGGCAA: 0.0694.
On to CTCCTCGA, for which the binding signal (normalized occupancy) turned out to be 0.0663.
CACAGCGA: the binding signal (normalized occupancy) turned out to be 0.0757.
In the case of TAGTCATA, the binding signal (normalized occupancy) came to 0.0824.
On to TCGCACCA, for which the binding signal (normalized occupancy) was found to be 0.0775.
With CCTACAGA, the binding signal (normalized occupancy) is 0.0729.
As for GTCCCTGA, the binding signal (normalized occupancy) turned out to be 0.0756.
As for AAAGAAAC, the figure is 0.0773; as for CACGCATG, 0.121.
As for CCCATCCC, the figure is 0.0829.
Take CTAGGGGC: the binding signal (normalized occupancy) amounted to 0.0728.
The same measure for AGCCTCTA: 0.0774; for CCACTCGA: 0.0783; for CCAGTAGG: 0.0666.
Regarding AATATCAA, the binding signal (normalized occupancy) is 0.0785.
Regarding ACTGCCGA, the binding signal (normalized occupancy) came out at 0.0686.
For the sequence AGCTGCTG, the binding signal (normalized occupancy) was found to be 0.0719.
As to CAAAATGA, the binding signal (normalized occupancy) was found to be 0.0772.
The same measure for GACAGATA: 0.081; for ATGGGAGC: 0.0768.
CCAAGGTA: the binding signal (normalized occupancy) worked out at 0.0695.
As for ACATCTGC, the figure is 0.0921.
For AGCTGGAC, the binding signal (normalized occupancy) amounted to 0.0725.
With CTTTCTAC, the binding signal (normalized occupancy) was 0.0754.
The same measure for AGGTCGAC: 0.0753; for ATCCGGGC: 0.0696; for CGCGGTAA: 0.0728.
The same measure for AACAGCTC: 0.0698; for AATGACCA: 0.0772; for ACATTCGC: 0.0767.
Regarding CCACATTA, the binding signal (normalized occupancy) turned out to be 0.093.
As for AATTTGAG, the figure is 0.075; as for GGACATCA, 0.0726.
Turning to CGTCCTGC, the binding signal (normalized occupancy) was 0.0753.
As for GCCGATAA, the figure is 0.0734.
As for GCAGCCCC, the figure is 0.0717; as for ACACCGCC, 0.071; as for CCAAGGAA, 0.0727.
Consider GCAGGATA, for which the binding signal (normalized occupancy) came to 0.0731.
The same measure for GTATCGTA: 0.0791; for CAGGTATG: 0.0849.
For the sequence ACCCGATA, the binding signal (normalized occupancy) is 0.0766.
In the case of GATTCTCC, the binding signal (normalized occupancy) came to 0.0726.
As for ATCCCAGG, the figure is 0.077; as for GAGGGATA, 0.0809.
As for CACCGGTG, the figure is 0.0754.
The same measure for CGTGTTAG: 0.0934; for ATTAGCCC: 0.0735.
On to GTCAAAAC, for which the binding signal (normalized occupancy) is 0.0673.
The same measure for ACTCTAAA: 0.0713.
As for ACCGGTTC, the binding signal (normalized occupancy) came out at 0.0691.
As for AGGTGGTC, the figure is 0.0855; as for AATTCGGG, 0.0773; as for CCCCGACC, 0.0749.
The same measure for ACAGCTTA: 0.0769.
On to GCCTAGCC, for which the binding signal (normalized occupancy) is 0.0731.
GCTTGAAC: the binding signal (normalized occupancy) is 0.0762.
Turning to CGCCACAA, the binding signal (normalized occupancy) was 0.076.
As for CATGTGCC, the figure is 0.149.
The same measure for GGACACAA: 0.0793; for AGTCCTCA: 0.0699.
In the case of TCCGCGCA, the binding signal (normalized occupancy) was found to be 0.0729.
On to ACCGAACC, for which the binding signal (normalized occupancy) came out at 0.0715.
For CCACCGAG, the binding signal (normalized occupancy) came to 0.0749.
As for GAATTATA, the figure is 0.0789; as for ATAAAGAA, 0.0757; as for ACGGGAAC, 0.074.
Consider AACCTAGG, for which the binding signal (normalized occupancy) was determined as 0.0678.
Turning to GAAGGTCC, the binding signal (normalized occupancy) is 0.0714.
The same measure for CAAGAGCG: 0.0762; for CTTCACAA: 0.0737.
On to AACTGTGA, for which the binding signal (normalized occupancy) turned out to be 0.0737.
For the sequence CCGTGCTA, the binding signal (normalized occupancy) amounted to 0.0812.
The same measure for ACGCCAGT: 0.0714; for CCCTCGGA: 0.0687.
As for GGGGCAGA, the figure is 0.0791.
For the sequence CAGTCGAC, the binding signal (normalized occupancy) turned out to be 0.0692.
Turning to CTAGTCAG, the binding signal (normalized occupancy) came out at 0.07.
In the case of AGACTTGG, the binding signal (normalized occupancy) is 0.0722.
On to AGCACGTA, for which the binding signal (normalized occupancy) was determined as 0.0853.
As to GGGACTTA, the binding signal (normalized occupancy) stood at 0.0709.
As for TATTGGCA, the figure is 0.083.
As for CTAGGGCC, the figure is 0.07; as for CACACGCC, 0.0955; as for ATTATTAC, 0.0856.
The same measure for AGCTCTGA: 0.0756; for TAATATGA: 0.0855; for AGAAATTG: 0.072.
As to CCGCATTA, the binding signal (normalized occupancy) amounted to 0.0798.
The same measure for AGCCGACG: 0.0709.
As for CGTAGACA, the figure is 0.0736; as for AAGCTAAA, 0.0675.
As for CACCAGCG, the figure is 0.0755; as for ACTATGAC, 0.0781; as for GAGACGCC, 0.0686.
For the sequence AAGGAATA, the binding signal (normalized occupancy) turned out to be 0.0719.
In the case of ATATCAAT, the binding signal (normalized occupancy) came to 0.0804.
On to ATGTCTTC, for which the binding signal (normalized occupancy) was 0.0804.
As for CCAATCTC, the figure is 0.0826.
Turning to CTCTGAGC, the binding signal (normalized occupancy) was 0.0688.
As for ACAGTCGG, the binding signal (normalized occupancy) is 0.0709.
As for GAAAGACC, the figure is 0.066.
Turning to CCCGAACA, the binding signal (normalized occupancy) was 0.0756.
As for GTTTCTAA, the figure is 0.0721; as for ATACCCTA, 0.0808; as for CGTTTGGC, 0.0688.
As for GAGACCTC, the figure is 0.0737; as for CTGCCATA, 0.0828; as for GCAGTAGC, 0.0723.
The same measure for GGTCCGTA: 0.07; for ATGGTGAG: 0.0835; for AAAGCTGC: 0.0725.
In the case of AGAGGCAA, the binding signal (normalized occupancy) was found to be 0.0735.
For the sequence CAACGGAG, the binding signal (normalized occupancy) is 0.0708.
The same measure for AGAGAGCC: 0.071.
On to GCTCCCTA, for which the binding signal (normalized occupancy) was 0.0743.
In the case of ATGAATTG, the binding signal (normalized occupancy) was determined as 0.0772.
The same measure for TGATATAA: 0.0803; for TCGGGTAA: 0.0763.
Regarding ATTAGTTC, the binding signal (normalized occupancy) amounted to 0.0751.
As for ACGGACAG, the figure is 0.0742; as for CCACTCCA, 0.0796; as for GACGGGCA, 0.0718.
As for CCTGGGCG, the figure is 0.0708; as for ATTAGCTC, 0.0696; as for ACCGGTTG, 0.0686.
The same measure for TGCAACCA: 0.0739; for CAGATATG: 0.0757; for CCCTAACC: 0.0758.
For AGCGAGCC, the binding signal (normalized occupancy) was 0.0665.
Turning to GGACTGGA, the binding signal (normalized occupancy) stood at 0.0745.
In the case of CGGAATAG, the binding signal (normalized occupancy) came to 0.0763.
Regarding TGCAAAAA, the binding signal (normalized occupancy) is 0.0771.
The same measure for CTGCCACC: 0.078; for GGCCCTAC: 0.0696; for ATCTGGCG: 0.0737.
In the case of CGCAAGAA, the binding signal (normalized occupancy) was found to be 0.0699.
CGGGCGAG: the binding signal (normalized occupancy) amounted to 0.0699.
The same measure for CCGCATGC: 0.128; for CTAATCCC: 0.0815; for ACTCTTAT: 0.0803.
Turning to ACTAAAGC, the binding signal (normalized occupancy) was 0.073.
As to CGGTGCCC, the binding signal (normalized occupancy) was determined as 0.0712.
CGAGACAC: the binding signal (normalized occupancy) was determined as 0.0816.
Consider GTATTAGA, for which the binding signal (normalized occupancy) was 0.0813.
Regarding ACCGTGCG, the binding signal (normalized occupancy) was 0.0828.
As for AACGGTCT, the figure is 0.075; as for CCTGGTGA, 0.0734.
As for CAGACAAC, the binding signal (normalized occupancy) was found to be 0.0742.
The same measure for AGTTACAC: 0.0745.
With TAACAAGA, the binding signal (normalized occupancy) turned out to be 0.0747.
On to AGCGGACG, for which the binding signal (normalized occupancy) came to 0.0671.
As for TGCTAGCA, the binding signal (normalized occupancy) was found to be 0.0864.
For the sequence CATACCTC, the binding signal (normalized occupancy) is 0.0806.
Regarding CACAAAAA, the binding signal (normalized occupancy) turned out to be 0.0719.
As to CGGAATCA, the binding signal (normalized occupancy) was found to be 0.0809.
The same measure for TATTGTAA: 0.0817; for AAAGTTTG: 0.0746.
As for ACCGTGCC, the figure is 0.0756; as for ACCCCAGC, 0.0789; as for AGGCGCCA, 0.0691.
The same measure for TAAATTAA: 0.073.
Turning to AATTAAAC, the binding signal (normalized occupancy) is 0.0734.
The same measure for CTGCTACA: 0.0765.
The same measure for ACGGTAGT: 0.073; for GAAGCTCA: 0.0681; for GACTGGAA: 0.0726.
As for GAAAGAAA, the figure is 0.0716; as for GCCAAAGA, 0.0684; as for GCCATTCC, 0.0759.
On to TCCTCCGA, for which the binding signal (normalized occupancy) was found to be 0.0717.
As for ACGTATGG, the figure is 0.0832.
As for CTCTCAAC, the figure is 0.0722; as for TAAATCTA, 0.0719.
The same measure for ACGAAAAC: 0.0745.
In the case of GCACGAAA, the binding signal (normalized occupancy) was 0.078.
The same measure for TCCCCGCA: 0.076.
As for AGGAGTGG, the figure is 0.0793; as for GGCTCTAC, 0.0717; as for AAACCCCC, 0.0846.
As to AAGTATGC, the binding signal (normalized occupancy) is 0.076.
Regarding ATGATATA, the binding signal (normalized occupancy) amounted to 0.088.
In the case of ATGCTTAA, the binding signal (normalized occupancy) was determined as 0.081.
Take GCTAGCCA: the binding signal (normalized occupancy) was found to be 0.0722.
For ATGTTGGA, the binding signal (normalized occupancy) was determined as 0.0805.
The same measure for CCGTGTCG: 0.075; for CTTCTTGA: 0.075; for AACCGGGC: 0.0685.
As for CAAACAAC, the figure is 0.0768.
As for CATAGGCC, the binding signal (normalized occupancy) amounted to 0.0736.
On to GAGCCCCC, for which the binding signal (normalized occupancy) is 0.0723.
For CACATGCA, the binding signal (normalized occupancy) is 0.138.
Take ATGGTTGG: the binding signal (normalized occupancy) was determined as 0.0735.
The same measure for ATTGCCCA: 0.0761; for CCGTAACG: 0.071.
Consider CGGTACAA, for which the binding signal (normalized occupancy) was 0.0766.
As for GTTGTCAA, the figure is 0.076; as for CAAAGATA, 0.0721; as for AATTGACC, 0.0727.
On to CGCCGAGC, for which the binding signal (normalized occupancy) is 0.0678.
As for CAGCTTAG, the figure is 0.0737.
Turning to AACGCTGT, the binding signal (normalized occupancy) is 0.0729.
As for AAGAAAAT, the figure is 0.0724; as for CACATTGC, 0.0923.
Consider CATAGGCA, for which the binding signal (normalized occupancy) was 0.0823.
As for CCCTGAGC, the figure is 0.0702; as for CCGTCCAA, 0.0686; as for CAGAAGAG, 0.0759.
As for AAATCCTG, the figure is 0.0711.
